The values that follow come from ChEMBL document CHEMBL4888484, “Replenishing the malaria drug discovery pipeline: Screening and hit evaluation of the MMV Hit Generation Library 1 (HGL1) against asexual blood stage Plasmodium falciparum ,using a nano luciferase reporter read-out” (2022).

Each structure is given as a SMILES string. About 540 (0.36%) of roughly 150,000 compounds showed an effect of 50% or more. The list shows a part of the results.

This assay concerns Plasmodium falciparum. Kind of assay: Primary screen in NF54 nanoGlo assay, in single point, at 2uM, 72h; a lower Z score goes with more inhibition. The format is functional, Erythrocyte. To be noted: timepoint 72 hour.
Turning to `Cc1ccsc1-c1nc(CN2CCC[C@](C)(CO)C2)c(C)o1`, the “% Inhibition” value is recorded as -18% and the Z score is given as 2.26.

On to `C[C@H]1CC(=O)Nc2ccccc2N1C(=O)CNCCc1ccccc1`, for which the “% Inhibition” value turned out to be 1% and the Z score is -0.22.

As to `CC(O)CN(Cc1cccc(OC(F)(F)F)c1)C(C)CO` (stereo not drawn), the “% Inhibition” value is -2% and the Z score is 0.37.

Take `Cc1cc(Cl)cc2nc(N3CCCNCC3)oc12`: the “% Inhibition” value was 8% and the Z score was -0.96.

With `Cc1ccc(Nc2ccc(N3CCNCC3)nn2)nc1`, the “% Inhibition” value is 47% and the Z score is -6.37.

With `COc1cc(NC(=O)NCCS(=O)(=O)N(C)C)cc(C(F)(F)F)c1`, the “% Inhibition” value was -4% and the Z score came out at 0.73.

Regarding `C[C@@]1(C(=O)NCc2ccccc2)CCC(=O)N1Cc1ccccc1`, the “% Inhibition” value is recorded as -9% and the Z score is listed as 1.05.

With `CCN(Cc1cc(Br)ccc1O)C(=O)[C@H]1CCn2cncc2C1`, the “% Inhibition” value is 5% and the Z score was -0.51.

As for `O=C(CCc1ccccn1)Nc1cc(CCc2ccccc2)n[nH]1`, the “% Inhibition” value is 7% and the Z score is -0.92.

On to `COc1cccc(CC(=O)N2CCC3(CC2)[C@@H](OC)CN3c2ccc(C)cc2)c1`, for which the “% Inhibition” value is -7% and the Z score is on record as 0.86.

Turning to `Cc1cc(N2CCCCS2(=O)=O)cc(C)c1S(=O)(=O)N1CCOCC1`, the “% Inhibition” value is on record as -6% and the Z score amounted to 1.26.

Regarding `COc1ccc([C@@H](O)Cn2cnc(C(=O)NCc3ccc(Br)cc3)n2)cc1`, the “% Inhibition” value was found to be 2% and the Z score is -0.19.

For `COCCN1C(=O)C[C@](CC(=O)N2CCC(C)CC2)(c2cccc(OC)c2)C1=O`, the “% Inhibition” value worked out at 3% and the Z score is given as -0.47.

As for `Cc1ccccc1CNC(=O)CN1CCN(CCO)[C@@H]2CS(=O)(=O)C[C@@H]21`, the “% Inhibition” value is -9% and the Z score is reported as 1.18.

As for `O=C(CN1CCCc2nc(-c3ccccc3)ncc2C1=O)NCC1CC1`, the “% Inhibition” value is recorded as 2% and the Z score was -0.33.

As for `CN1C[C@H](NCc2cccc3c2OCO3)CCC[C@@H](C(=O)NCc2cc(F)cc(F)c2)CC1=O`, the “% Inhibition” value is listed as -7% and the Z score is recorded as 0.91.

Take `COc1ccccc1OCC(=O)N1CC[C@@](O)(C2CCOCC2)[C@H](C)C1`: the “% Inhibition” value is recorded as -10% and the Z score came out at 1.94.

Consider `Cc1cc(OCC(=O)N2CCN(c3ccc(F)cc3)CC2)nc2c1c(C)nn2C`, for which the “% Inhibition” value is given as -15% and the Z score is on record as 1.63.

For `CCCCS(=O)(=O)N=C1NCN(c2ccc(Cl)cc2)CN1`, the “% Inhibition” value is -1% and the Z score was 0.28.

As for `OC1CC(C2CCCCC2)N(CCc2ccncc2)C1` (stereo not drawn), the “% Inhibition” value is -8% and the Z score amounted to 1.08.

As for `CC(C)(C)OC(=O)N1CCN(CCF)CCN(CCF)CC1`, the “% Inhibition” value is 2% and the Z score was -0.3.

`CC(C)(C)NS(=O)(=O)c1cc(N)ccc1F`: the “% Inhibition” value is recorded as -5% and the Z score came out at 0.92.

As to `Cc1ccc(C)c(S(=O)(=O)NCCc2cnn(-c3ccccc3)c2)c1`, the “% Inhibition” value is recorded as -6% and the Z score came out at 0.86.

Turning to `COc1ccccc1[C@H](C)NC(=O)Cn1cnc2c1CCNC21CCOCC1`, the “% Inhibition” value is on record as -3% and the Z score was 0.52.

For the molecule `CN(C)CCNS(=O)(=O)Cc1ccccc1`, the “% Inhibition” value is -9% and the Z score was 1.64.

For `O[C@]1(CN2CCCC2)COCCN(c2nccc(C(F)(F)F)n2)C1`, the “% Inhibition” value is listed as -1% and the Z score is listed as 0.08.

Regarding `CC1CN(Cc2ccc(C#N)cc2)CCN1C(=O)c1ccccc1OCC1CCCO1` (stereo not drawn), the “% Inhibition” value is reported as 1% and the Z score is listed as -0.12.

As to `Cc1ccc(S(=O)(=O)Cc2ccc(-c3nc(-c4cccc(C(F)(F)F)c4)no3)o2)c(C)c1`, the “% Inhibition” value was -1% and the Z score is on record as 0.14.

`Cc1cccc(CNS(=O)(=O)c2cc3c(s2)CCN(C(=O)C2CCC2)C3)c1`: the “% Inhibition” value is given as -7% and the Z score was found to be 1.29.

As for `CC(=O)N(c1nc(C=C(C)c2cnccn2)cs1)C1CC1`, the “% Inhibition” value was -11% and the Z score stood at 1.11.

As to `CC(C)(C)c1nccc(NC2CCCC2C(N)=O)n1` (stereo not drawn), the “% Inhibition” value is listed as -3% and the Z score worked out at 0.63.

As for `C#CCn1ccnc1CNc1nnc(CCCC)o1`, the “% Inhibition” value was -7% and the Z score worked out at 1.15.

Take `O=C(CC1CCCC1)NCCn1ccnc1`: the “% Inhibition” value is -6% and the Z score was determined as 0.87.

As for `O=C(NC1CCCCC1)C(=O)N1CC2CCCC21` (stereo not drawn), the “% Inhibition” value is reported as -14% and the Z score was 2.18.

As for `CCc1ncc(C(=O)N2CCO[C@@H](CCCc3ccccc3)C2)cn1`, the “% Inhibition” value is listed as -2% and the Z score was found to be 0.24.

In the case of `COCCCN(C)C(=O)N1CCCC[C@H](N2CCN(C)CC2)C1`, the “% Inhibition” value is recorded as -14% and the Z score stood at 1.51.

With `O=C(Nc1cccc(S(=O)(=O)N2CCCC2)c1)C1=NN(c2ccccc2)C(=O)CC1`, the “% Inhibition” value came out at 1% and the Z score is given as -0.13.

In the case of `C=C1C(C)C2C(Cc3c[nH]c4ccccc34)NC(=O)C23C(=O)CC(O)C(O)CC(C)C/C=C/C3C1O` (stereo not drawn), the “% Inhibition” value is 67% and the Z score is -7.59.

Consider `C[C@H](NC(=O)NC[C@H]1CCCC[C@@H]1O)c1cccc(O)c1`, for which the “% Inhibition” value is recorded as 2% and the Z score is given as -0.32.

Turning to `O=C(C1CCN(c2ncnc3c2oc2ccccc23)CC1)N1CCOCC1`, the “% Inhibition” value was -5% and the Z score turned out to be 0.97.

On to `COC(=O)CCNC(=O)C1CCCC1C(=O)NCCC(=O)OC` (stereo not drawn), for which the “% Inhibition” value is -1% and the Z score was 0.11.

For `Cc1cc(-c2nc3ccccc3s2)ccc1NC(=O)NCc1ccc(F)cc1`, the “% Inhibition” value is -11% and the Z score amounted to 1.78.

Turning to `O=C(N1CC2CC1CO2)C1(c2ccccc2)CCOCC1` (stereo not drawn), the “% Inhibition” value is listed as -12% and the Z score amounted to 1.44.

On to `CN(C)c1ccc(CCC(=O)N2CCCC[C@@H]2CCN2CCCC2=O)cc1`, for which the “% Inhibition” value is reported as -4% and the Z score is 0.36.

`Cc1cc(N(C)C)nc(CNC(=O)Cc2ccccc2)n1`: the “% Inhibition” value is given as -4% and the Z score is on record as 0.68.

With `CC[C@@]1(F)C(=O)Nc2ccccc2C1=O`, the “% Inhibition” value is recorded as -5% and the Z score stood at 0.63.

As for `COCC[C@H]1CN(CCCn2cc(C)cn2)CCO1`, the “% Inhibition” value is -3% and the Z score amounted to 0.58.

In the case of `CC(C)C(=O)N1CCC(NCc2csc(C3CC3)n2)C(C)C1` (stereo not drawn), the “% Inhibition” value is recorded as -7% and the Z score is 1.08.

Turning to `COc1ccc2c(c1)N1CCN(c3ccc(C)cc3)CC1C(C(=O)NCCCN1CCOCC1)C2` (stereo not drawn), the “% Inhibition” value is -7% and the Z score is 0.82.

Turning to `CC(C)NC(=O)c1cc(NS(=O)(=O)c2ccc(C3CCCCC3)cc2)ccc1N1CCNCC1`, the “% Inhibition” value is -14% and the Z score is 1.67.

For the molecule `CCN(CC#N)C(=O)c1ccc(C)[nH]c1=O`, the “% Inhibition” value was -2% and the Z score was found to be 0.23.

With `Cc1nn(-c2ccc3nncn3n2)c(C)c1CCC(=O)NC1CCCC1`, the “% Inhibition” value is given as -17% and the Z score is given as 2.12.

Regarding `CC[C@@]1(C)Nc2ccccc2-c2nc(=O)c(-c3ccc(F)cc3)nn21`, the “% Inhibition” value stood at 6% and the Z score is -0.7.

For `COC(=O)[C@@H]1Cc2[nH]cnc2C(C)(C)N1`, the “% Inhibition” value is given as -12% and the Z score is 1.09.
